Assay [1] deals with T1, TGF-β2 (UniProt P61812 303-414).
T1 construct: also called TGF-β2 protein
T1 sequence (looked up): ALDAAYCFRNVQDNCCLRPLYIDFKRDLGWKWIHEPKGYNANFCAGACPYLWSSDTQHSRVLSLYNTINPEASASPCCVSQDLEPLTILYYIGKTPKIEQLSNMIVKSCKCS
Kind of assay: indirect ELISA, TGF-β2 coated. On the technique in general: In an ELISA, binding on a coated surface is turned into a signal by an enzyme label.

In assay [2] the target is T2, TGF-β1 (human, UniProt P01137 fragment).
T2 construct: also called human TGF-β1; TGF-β1 protein
In words: competitive ELISA vs TGF-βRII-His-Biotin, TGF-β1 coated.

Assay [3] concerns the target T2, TGF-β1. In words: indirect ELISA, TGF-β1 coated.
In assay [4] the target is T2, TGF-β1. In words: indirect ELISA, TGF-β1 coated. This is another data set of the same source.
T2 sequence (P01137 279-390 limits assumed): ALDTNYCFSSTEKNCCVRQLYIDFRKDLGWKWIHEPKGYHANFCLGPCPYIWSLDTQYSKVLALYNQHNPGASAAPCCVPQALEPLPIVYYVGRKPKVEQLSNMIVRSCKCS

B1: TF02 (other)
heavy: DVQLQESGPGLVKPSQTLSLTCTVSGHSFTSDYAWSWIRQPPGKGLEWIGYISYSDSTNYNPSLKSRVTISRDTSKNQFSLKLSSVTAADTAVYYCARLDYGNYGGAMDYWGQGTSVTVSS[human IgG1 constant region with changes not printed]GGGGSGGGGSGGGGSGGGGSGIPPHVQKSVNNDMIVTDNNGAVKFPQLCKFCDVRFSTCDNQKSCMSNCSITSICEKPQEVCVAVWRKNDENITLETVCHDPKLPYHDFILEDAASPKCIMKEKKKPGETFFMCSCSSDECNDNIIFSEEYNTSNPD
light: DIQMTQSPSSLSASVGDRVTITCRSSQHVSTALAWYQQKPGKSPKLLIYSASSRYSGVPDRFSGSGSGTDFTFTISSLQPEDFATYYCQQHYITPWTFGGGTKLEIKRTVAAPSVFIFPPSDEQLKSGTASVVCLLNNFYPREAKVQWKVDNALQSGNSQESVTEQDSKDSTYSLSSTLTLSKADYEKHKVYACEVTHQGLSSPVTKSFNRGEC
notes: Anti-TIGIT IgG1 (L234A, L235A) antibody with a TGF-βRII fragment linked to the C-terminus of each heavy chain; also called anti-TIGIT antibody-TGF-βR fusion protein TF02
For B1, the figures for the EC50 in assay [1], in assay [2] and in assay [3] were 0.594 nM, 7.47 nM and 0.224 nM, respectively.

B2: TF01 (other)
heavy: DVQLQESGPGLVKPSQTLSLTCTVSGHSFTSDYAWSWIRQPPGKGLEWIGYISYSDSTNYNPSLKSRVTISRDTSKNQFSLKLSSVTAADTAVYYCARLDYGNYGGAMDYWGQGTSVTVSSASTKGPSVFPLAPCSRSTSESTAALGCLVKDYFPEPVTVSWNSGALTSGVHTFPAVLQSSGLYSLSSVVTVPSSSLGTKTYTCNVDHKPSNTKVDKRV[human IgG4 Fc with S228P F234A L235A (EU numbers) not printed]GGGGSGGGGSGGGGSGGGGSGIPPHVQKSVNNDMIVTDNNGAVKFPQLCKFCDVRFSTCDNQKSCMSNCSITSICEKPQEVCVAVWRKNDENITLETVCHDPKLPYHDFILEDAASPKCIMKEKKKPGETFFMCSCSSDECNDNIIFSEEYNTSNPD
light: B1 light
notes: Anti-TIGIT IgG4 (F234A, L235A) antibody with a TGF-βRII fragment linked to the C-terminus of each heavy chain; also called anti-TIGIT antibody-TGF-βR fusion protein TF01
For B2, it took 0.477 nM to reach a half-maximal effect in assay [1] (EC50).

B3: TF01T (other)
heavy: DVQLQESGPGLVKPSQTLSLTCTVSGHSFTSDYAWSWIRQPPGKGLEWIGYISYSDSTNYNPSLKSRVTISRDTSKNQFSLKLSSVTAADTAVYYCARLDYGNYGGAMDYWGQGTSVTVSSASTKGPSVFPLAPCSRSTSESTAALGCLVKDYFPEPVTVSWNSGALTSGVHTFPAVLQSSGLYSLSSVVTVPSSSLGTKTYTCNVDHKPSNTKVDKRV[human IgG4 Fc with S228P F234A L235A (EU numbers) not printed]GGGGSGGGGSGGGGSGGGGSGIPPHVQKTVNNDMIVTDNNGAVKFPQLCKFCDVRFSTCDNQKSCMSNCSITSICEKPQEVCVAVWRKNDENITLETVCHDPKLPYHDFILEDAASPKCIMKEKKKPGETFFMCSCSSDECNDNIIFSEEYNTSNPD
light: B1 light
notes: Point mutant of TF01; also called anti-TIGIT antibody-TGF-βR fusion protein TF01T
For B3, in assay [4], the EC50 is 0.1 nM.

As a reminder, the EC50 is the concentration at which the effect is half-maximal.

The values above are taken from patent EP4671269A1 (Akeso Biopharma Co., Ltd., dated 2025).
